{"source": "the supplement of paper PMC10126150", "note": "Sequences with one replicate were seen in a single cluster, so their values are uncertain.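 Also: ATP exposure 15 min at 22 °C before imaging.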"}
{"test_system": "ATP", "experiment": "switch fluorescence ratio, 500 uM ATP over buffer (Cy3 cluster intensity, sum of 5 cycles each) (fold (ratio)); higher = stronger signal-on switching upon ATP binding; sequences stand for … in TCGTCGGCAGCGTCAGATGTGTATAAGAGACAGTTTTTTTTTTTTTTTTTTTTTTTTT…TC", "details": "aptamer strand: ATP DNA aptamer (quencher-CACCTGGGGGAGTATTGCGGAGGAAGG + anchor), 100 nM annealed; ATP concentration: 500 uM; one replicate", "in_short": "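Imaging in selection buffer was followed by imaging after 15 min with 500 uM ATP at 22 °C, for Cy3-labelled switching-strand clusters annealed to 100 nM quencher-labelled ATP aptamer on a modified Illumina MiSeq flow-cell. Five of these buffer/ATP cycles ran, separated by NaOH stripping and re-annealing. The fluorescence ratio per cluster is summed target-cycle over summed buffer-cycle Cy3 intensity, averaged per switch-domain sequence; clusters outside 100-1000 RFU were removed.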"}
{"sequence": "GGACACTTGC", "switch fluorescence ratio": 1.07}
{"sequence": "GGACAGATCC", "switch fluorescence ratio": 0.954}
{"sequence": "GGACATGAGC", "switch fluorescence ratio": 0.983}
{"sequence": "GGACATTGGG", "switch fluorescence ratio": 1.02}
{"sequence": "GGACCAGAGT", "switch fluorescence ratio": 1}
{"sequence": "GGACCAGG", "switch fluorescence ratio": 0.978}
{"sequence": "GGACCAGTGC", "switch fluorescence ratio": 1.23}
{"sequence": "GGACCATTTT", "switch fluorescence ratio": 0.984}
{"sequence": "GGACGATATG", "switch fluorescence ratio": 0.97}
{"sequence": "GGACGCGTTT", "switch fluorescence ratio": 1.01}
{"sequence": "GGACGGGATA", "switch fluorescence ratio": 1.07}
{"sequence": "GGACGGTAGC", "switch fluorescence ratio": 1.1}
{"sequence": "GGACGTTCCA", "switch fluorescence ratio": 0.979}
{"sequence": "GGACTACTAG", "switch fluorescence ratio": 1.07}
{"sequence": "GGACTATATA", "switch fluorescence ratio": 1.02}
{"sequence": "GGACTCACGG", "switch fluorescence ratio": 1.09}
{"sequence": "GGACTCGACC", "switch fluorescence ratio": 1.04}
{"sequence": "GGACTGTGGA", "switch fluorescence ratio": 0.983}
{"sequence": "GGACTTATAA", "switch fluorescence ratio": 1.04}
{"sequence": "GGACTTGAAT", "switch fluorescence ratio": 1.03}
{"sequence": "GGACTTGGTG", "switch fluorescence ratio": 1.03}
{"sequence": "GGACTTGTTG", "switch fluorescence ratio": 1.04}
{"sequence": "GGAGAAAGAA", "switch fluorescence ratio": 1.03}
{"sequence": "GGAGAAAGGC", "switch fluorescence ratio": 1.7}
{"sequence": "GGAGACCAGT", "switch fluorescence ratio": 1.01}
{"sequence": "GGAGACGCCT", "switch fluorescence ratio": 0.971}
{"sequence": "GGAGAGTCTT", "switch fluorescence ratio": 1}
{"sequence": "GGAGATGCCT", "switch fluorescence ratio": 1.02}
{"sequence": "GGAGCCAACC", "switch fluorescence ratio": 1.09}
{"sequence": "GGAGCCGAAT", "switch fluorescence ratio": 1.02}
{"sequence": "GGAGCCGGG", "switch fluorescence ratio": 1.03}
{"sequence": "GGAGCTAGAT", "switch fluorescence ratio": 1.34}
{"sequence": "GGAGCTTGGA", "switch fluorescence ratio": 1}
{"sequence": "GGAGGAATGT", "switch fluorescence ratio": 1.07}
{"sequence": "GGAGGCGCAA", "switch fluorescence ratio": 4.8}
{"sequence": "GGAGGCGCCA", "switch fluorescence ratio": 0.977}
{"sequence": "GGAGGGCAGC", "switch fluorescence ratio": 0.947}
{"sequence": "GGAGGTGTTT", "switch fluorescence ratio": 1.05}
{"sequence": "GGAGTGCATG", "switch fluorescence ratio": 1.01}
{"sequence": "GGAGTTAG", "switch fluorescence ratio": 0.999}
{"sequence": "GGAGTTAGAA", "switch fluorescence ratio": 0.994}
{"sequence": "GGAGTTATTG", "switch fluorescence ratio": 0.973}
{"sequence": "GGAGTTCCTT", "switch fluorescence ratio": 1.03}
{"sequence": "GGAGTTGTCA", "switch fluorescence ratio": 0.957}
{"sequence": "GGATAAAC", "switch fluorescence ratio": 1.08}
{"sequence": "GGATAACTTG", "switch fluorescence ratio": 0.98}
{"sequence": "GGATAAGTGC", "switch fluorescence ratio": 0.985}
{"sequence": "GGATAAGTGG", "switch fluorescence ratio": 1.03}
{"sequence": "GGATAATAGA", "switch fluorescence ratio": 1.07}
{"sequence": "GGATAGCCGT", "switch fluorescence ratio": 0.97}
{"sequence": "GGATAGGGCT", "switch fluorescence ratio": 0.98}
{"sequence": "GGATATACGA", "switch fluorescence ratio": 1.05}
{"sequence": "GGATATCGAC", "switch fluorescence ratio": 1.03}
{"sequence": "GGATATCGGG", "switch fluorescence ratio": 0.946}
{"sequence": "GGATATGAAC", "switch fluorescence ratio": 1}
{"sequence": "GGATATGGTG", "switch fluorescence ratio": 0.954}
{"sequence": "GGATCAAAGT", "switch fluorescence ratio": 0.999}
{"sequence": "GGATCACCAG", "switch fluorescence ratio": 1.04}
{"sequence": "GGATCAGTGT", "switch fluorescence ratio": 0.969}
{"sequence": "GGATCATAAG", "switch fluorescence ratio": 0.959}
{"sequence": "GGATCATAGC", "switch fluorescence ratio": 0.979}
{"sequence": "GGATCGGCCC", "switch fluorescence ratio": 0.968}
{"sequence": "GGATCGTTTT", "switch fluorescence ratio": 1}
{"sequence": "GGATCTACTA", "switch fluorescence ratio": 0.985}
{"sequence": "GGATCTCGCA", "switch fluorescence ratio": 0.967}
{"sequence": "GGATCTCTTG", "switch fluorescence ratio": 0.986}
{"sequence": "GGATCTGCGT", "switch fluorescence ratio": 0.958}
{"sequence": "GGATCTGGCG", "switch fluorescence ratio": 0.965}
{"sequence": "GGATCTTGAT", "switch fluorescence ratio": 0.948}
{"sequence": "GGATGAACCC", "switch fluorescence ratio": 0.999}
{"sequence": "GGATGAGGAC", "switch fluorescence ratio": 1.01}
{"sequence": "GGATGGCCGA", "switch fluorescence ratio": 0.988}
{"sequence": "GGATGGGGTA", "switch fluorescence ratio": 0.996}
{"sequence": "GGATGGTGGC", "switch fluorescence ratio": 1.04}
{"sequence": "GGATGTATGC", "switch fluorescence ratio": 1.1}
{"sequence": "GGATGTTCTG", "switch fluorescence ratio": 0.99}
{"sequence": "GGATTAGGT", "switch fluorescence ratio": 0.99}
{"sequence": "GGATTATCTA", "switch fluorescence ratio": 0.966}
{"sequence": "GGATTCAACG", "switch fluorescence ratio": 1}
{"sequence": "GGATTCGCAC", "switch fluorescence ratio": 1.6}
{"sequence": "GGATTGAAGC", "switch fluorescence ratio": 0.958}
{"sequence": "GGATTTTC", "switch fluorescence ratio": 1.03}
{"sequence": "GGCAATATGA", "switch fluorescence ratio": 2.16}
{"sequence": "GGCAATGAGT", "switch fluorescence ratio": 1.03}
{"sequence": "GGCACCATCT", "switch fluorescence ratio": 1.03}
{"sequence": "GGCACCGTTC", "switch fluorescence ratio": 1.06}
{"sequence": "GGCACGAGGT", "switch fluorescence ratio": 0.948}
{"sequence": "GGCACGTGAG", "switch fluorescence ratio": 1.04}
{"sequence": "GGCACTACTC", "switch fluorescence ratio": 3.37}
{"sequence": "GGCAGAAAGG", "switch fluorescence ratio": 1.01}
{"sequence": "GGCAGGACAG", "switch fluorescence ratio": 0.952}
{"sequence": "GGCAGGGACG", "switch fluorescence ratio": 0.938}
{"sequence": "GGCAGGGTCC", "switch fluorescence ratio": 0.959}
{"sequence": "GGCAGTGC", "switch fluorescence ratio": 1.27}
{"sequence": "GGCAGTGCAC", "switch fluorescence ratio": 0.964}
{"sequence": "GGCATAAACT", "switch fluorescence ratio": 1.02}
{"sequence": "GGCATAGCCT", "switch fluorescence ratio": 1.03}
{"sequence": "GGCATCGGAG", "switch fluorescence ratio": 0.981}
{"sequence": "GGCATGGCTG", "switch fluorescence ratio": 0.993}
{"sequence": "GGCATTCAAC", "switch fluorescence ratio": 1.04}
